# Test results published in PubChem BioAssay AID1845197 (Molecular Pharmacology Branch, DTP, NCI, 2023).
# Not every entry of the source has a single result; some have several. Only these are listed. The source may hold further records. Values that stand side by side are repeated measurements (runs, samples, wells, individuals or studies).
# Tested on: 349418-098-R tumor spheroid viability
# Assay: Anticancer human tumor 349418-098-R patient-derived lung adenocarcinoma cell line growth inhibition
# Conditions: compound 30 pM; stronger effect = lower value; spheroids with HUVEC and MSC
# Excerpt: Multicellular complex tumor spheroid response to DNA repair inhibitors in combination with DNA-damaging drugs
# This study explores the anticancer activities of DNA-damaging drugs and inhibitors of DNA damage repair, both as single agents and in combinations. Complex tumor spheroids comprised of malignant cells, endothelial cells and mesenchymal stem cells served as an in vitro model for human solid tumors. This model system incorporates physiologically relevant features and patient-derived or established malignant cell lines with clinically relevant genetic alterations from many tumor types. Twenty-six patient-derived or established malignant cell lines were evaluated representing sarcoma, melanoma, small cell lung cancer (SCLC), non-small cell lung cancer (NSCLC), as well as bladder, ovarian and pancreatic cancers. The concentration ranges selected for each drug and investigational agent were based upon clinically achievable concentrations if the clinical Cmax of the agent was known.
# Compounds. […] If the clinical Cmax for an agent had not been determined, the highest concentration tested was 10 microM. […]
# 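Note: spheroids exposed to compound for 7 days before measurement; percent of vehicle control viability with 100% = DMSO-treated spheroids.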
compound,measurement,value
COc1cc2c(cc1O)CCNC21CSC2c3c(OC(C)=O)c(C)c4c(c3C(COC1=O)N1C(O)C3Cc5cc(C)c(OC)c(O)c5C(C21)N3C)OCO4 (stereo unspecified),"viability, T/C","104, 87.2, 94.1, 110, 108, 103, 91, 89.2, 96.2, 84.9%"
